According to PubChem BioAssay (Tox21):
Values joined by “and” are separate entries in the source; they are usually repeats but may differ in a detail not shown here. Identical values can stand only once. Inconclusive means that the source gave no clear call. Such entries were picked first, then a sample of the others. For some assays here: Potencies of inconclusive entries are doubtful fits and often do not repeat. Active and inactive are the calls of the source. Unless noted, the call rests on the fitted dose curve; in most records, active means well fitted curve in the direction sought with a large enough effect in the repeat runs; inconclusive means weak or mixed curves; inactive means no such curve, though single readings can be large; an effect the other way counts as inactive or inconclusive.

How the values were obtained:
[1] = qHTS assay to identify small molecule antagonists of the retinoid acid receptor (RAR) signaling pathway - cell viability counter screen (AID 1159551); further: nearly all actives have a fitted effect of over 35% in size; further: potency means the concentration at half of the fitted maximal effect
Outline: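 ATP-based viability, C3RL4 cells, 6 h at 37 C with 1 uM final retinol co-added after compound; luminescence read 30 min post CellTiter-Glo, RT.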

[2] = qHTS assay to identify small molecule agonists of the retinoic acid receptor (RAR) signaling pathway (AID 1159553); settings: C3RL4 RARE luciferase reporter, agonist, 6 h; activation: at 73.3 µM (top of the series) unless noted; further: potency means the concentration at half of the fitted maximal effect; on activation: on the % scale 0 is the no-effect control and ±100 the full control effect
Outline: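 Quantitative high-throughput format: the Tox21 10K library was tested on C3RL4 RARE-luciferase cells for 6 hr at 37 C and 5% CO2, with luminescence measured after a 30 min room-temperature reagent step.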

[3] = qHTS assay to identify small molecule antagonists of the constitutive androstane receptor (CAR) signaling pathway - cell viability counter screen (AID 1224837); further: potency means the concentration at half of the fitted maximal effect; nearly all actives have a fitted effect of over 45% in size
Outline: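 Cells are seeded, rested 4 hr at 37 C/5% CO2, dosed with compound (15-point series) and 50 nM CITCO, incubated a further 23 hr, and then CellTiter-Fluor reagent is added before fluorescence is read. The line is HepG2 with stable hCAR and CYP2B6-2.2kb.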

[4] = target: Nuclear receptor subfamily 1 group I member 3 (Homo sapiens) (UniProt Q14994); assay: qHTS assay to identify small molecule antagonists of the constitutive androstane receptor (CAR) signaling pathway (AID 1224838);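 further: HepG2 cells stably expressing hCAR with CYP2B6 luciferase reporter stimulated by CITCO; nearly all actives have a fitted effect of over 40% in size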; further: potency means the concentration at half of the fitted maximal effect
UniProt Q14994, sequence (Q14994 whole entry, looked up): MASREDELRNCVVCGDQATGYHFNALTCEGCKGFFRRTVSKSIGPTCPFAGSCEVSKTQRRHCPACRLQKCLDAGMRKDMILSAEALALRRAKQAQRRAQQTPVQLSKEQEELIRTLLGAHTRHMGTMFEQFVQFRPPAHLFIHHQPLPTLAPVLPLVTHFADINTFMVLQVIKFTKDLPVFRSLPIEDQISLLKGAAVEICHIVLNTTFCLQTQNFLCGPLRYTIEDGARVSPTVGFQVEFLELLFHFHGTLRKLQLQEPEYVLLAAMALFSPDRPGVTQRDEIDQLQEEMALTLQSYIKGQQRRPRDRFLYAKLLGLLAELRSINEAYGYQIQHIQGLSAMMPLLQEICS
Outline: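 Luminescence from a CYP2B6-2.2kb promoter reporter in hCAR-expressing HepG2 cells reflects CAR signaling. Cells received compounds at 15 concentrations and 50 nM CITCO (final), then incubated 24 h at 37 C/5% CO2.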

[5] = qHTS assay to identify small molecule antagonists of the estrogen related receptor signaling pathway with the pleiotropic PPARgamma coactivator (PGC) from Tox21 10K library - cell viability counter screen (AID 1224840; active means well fitted cell-killing curve with a large enough effect in the repeat runs, not every such curve was filed as active; inconclusive means weak or mixed curves, or effect the other way; inactive means no such curve, though single readings can be large or run the other way; further: potency means the concentration at half of the fitted maximal effect; nearly all actives have a fitted effect of over 40% in size)
Outline: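 Cell viability is measured by CellTiter-Fluor fluorescence in PGC/ERR cells that receive compounds after a 6-hour attachment period and are then incubated 17.5 hours at 37 C.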

[6] = qHTS assay to identify small molecule antagonists of the estrogen related receptor signaling pathway with the pleiotropic PPARgamma coactivator (PGC) from Tox21 10K library (AID 1224841; call rule not given here; further: actives are mostly falling curves and most rising ones were filed inactive; nearly all actives have a fitted effect of over 50% in size; further: potency means the concentration at half of the fitted maximal effect)
Outline: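 Cells stably carrying the PGC/ERR reporter, seeded at 2,000 per well, received pin-transferred compounds 6 h post-plating. Exposure lasted 18 h at 37 C. Signal: One-Glo luminescence.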

[7] = qHTS assay to identify small molecule agonists of the estrogen related receptor signaling pathway with the pleiotropic PPARgamma coactivator (PGC) from Tox21 10K library (AID 1224842); further: potency means the concentration at half of the fitted maximal effect; nearly all actives have a fitted effect of over 15% in size
Outline: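 PGC/ERR reporter cell line, 2,000 cells per well, incubated 6 h at 37 C before 23 nL compound in DMSO was added. After 18 h at 37 C, One-Glo luminescence read following 30 min at room temperature.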

[8] = target: Thyrotropin receptor (Homo sapiens) (UniProt P16473); assay: qHTS assay to identify small molecule agonists of the thyroid stimulating hormone receptor (TSHR) signaling pathway (AID 1224843; calls by dose curve; further: nearly all actives have a fitted effect of over 45% in size; further: potency means the concentration at half of the fitted maximal effect; on activation: on the % scale 0 is the no-effect control and ±100 the full control effect); settings: TSHR-HEK293 cells, cAMP HTRF, agonist mode, 30 min; activation: at 92.4 µM (top of the series) unless noted
UniProt P16473, sequence (P16473 whole entry, looked up): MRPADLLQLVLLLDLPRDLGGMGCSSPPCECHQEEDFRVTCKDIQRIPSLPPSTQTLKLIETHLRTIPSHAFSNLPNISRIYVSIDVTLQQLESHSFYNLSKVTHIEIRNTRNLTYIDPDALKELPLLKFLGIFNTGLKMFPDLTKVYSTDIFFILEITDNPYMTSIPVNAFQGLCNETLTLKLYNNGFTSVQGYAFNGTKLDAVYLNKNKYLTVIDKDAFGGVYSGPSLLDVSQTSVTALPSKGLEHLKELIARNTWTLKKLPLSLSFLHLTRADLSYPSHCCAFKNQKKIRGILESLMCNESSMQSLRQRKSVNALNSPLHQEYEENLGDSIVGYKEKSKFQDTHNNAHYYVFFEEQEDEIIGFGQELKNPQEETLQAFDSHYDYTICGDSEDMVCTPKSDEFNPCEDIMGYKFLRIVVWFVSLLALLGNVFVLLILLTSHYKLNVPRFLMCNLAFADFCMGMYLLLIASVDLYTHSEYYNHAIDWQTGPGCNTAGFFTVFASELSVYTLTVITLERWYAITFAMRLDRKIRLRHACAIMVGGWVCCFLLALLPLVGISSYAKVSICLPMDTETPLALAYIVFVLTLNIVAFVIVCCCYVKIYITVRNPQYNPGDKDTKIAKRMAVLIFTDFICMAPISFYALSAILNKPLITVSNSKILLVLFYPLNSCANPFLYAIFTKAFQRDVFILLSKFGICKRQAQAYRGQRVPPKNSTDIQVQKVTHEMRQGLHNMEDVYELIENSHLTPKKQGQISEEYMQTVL
Outline: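 Agonist-mode screen: TSHR HEK293 cells received test chemicals for half an hour at room temperature, then HTRF cAMP detection reagents for one hour prior to fluorescence measurement. Each chemical ran as a 15-concentration series, triplicated.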

[9] = qHTS assay to identify small molecule agonists of the hypoxia (HIF-1) signaling pathway - cell viability counter screen (AID 1224844; calls by dose curve; further: potency means the concentration at half of the fitted maximal effect; nearly all actives have a fitted effect of over 50% in size)
Outline: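 Viability counter screen: HRE-bla ME-180 cells plated 5 hrs before compound addition, treated 17 hrs at 37C and 5% CO2, then CellTiter-Glo added after the FRET reporter read; luminescence after 30 min.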

[10] = qHTS assay to identify small molecule antagonists of the estrogen related receptor (ERR) signaling pathway from Tox21 library - cell viability counter screen (AID 1224834); further: potency means the concentration at half of the fitted maximal effect; nearly all actives have a fitted effect of over 30% in size
Outline: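 Compounds in DMSO were pinned onto ERR cells that had been incubated for 6 h, and the plates were held at 37 C for 17.5 h. CellTiter-Fluor reagent was then added and fluorescence was measured after 30 min.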

[11] = target: Luciferin 4-monooxygenase (Photinus pyralis) (UniProt P08659); assay: qHTS assay to identify small molecule inhibitors of firefly luciferase (AID 1224835); further: potency means the concentration at half of the fitted maximal effect; nearly all actives have a fitted effect of over 25% in size
UniProt P08659, sequence (P08659 whole entry, looked up): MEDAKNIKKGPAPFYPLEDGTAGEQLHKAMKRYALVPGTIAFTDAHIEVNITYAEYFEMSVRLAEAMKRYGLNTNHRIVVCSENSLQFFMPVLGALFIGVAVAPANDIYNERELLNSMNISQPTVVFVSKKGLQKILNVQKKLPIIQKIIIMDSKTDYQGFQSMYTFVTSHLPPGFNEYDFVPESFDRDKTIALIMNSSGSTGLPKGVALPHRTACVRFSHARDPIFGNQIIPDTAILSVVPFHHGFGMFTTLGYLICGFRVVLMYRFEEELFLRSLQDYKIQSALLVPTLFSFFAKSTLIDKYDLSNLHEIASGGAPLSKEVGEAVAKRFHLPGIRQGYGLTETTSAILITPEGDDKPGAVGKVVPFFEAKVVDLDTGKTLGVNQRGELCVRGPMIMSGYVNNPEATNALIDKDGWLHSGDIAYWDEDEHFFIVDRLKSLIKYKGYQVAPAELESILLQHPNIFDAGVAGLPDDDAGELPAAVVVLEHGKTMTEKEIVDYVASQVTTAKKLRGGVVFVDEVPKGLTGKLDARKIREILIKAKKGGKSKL
Outline: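 Biochemical qHTS: compounds run as interplate titrations against purified firefly enzyme, with D-luciferin and ATP each at its KM concentration. Light output recorded by CCD imaging.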

[12] = qHTS assay to identify small molecule agonists of the constitutive androstane receptor (CAR) signaling pathway - cell viability counter screen (AID 1224836); further: potency means the concentration at half of the fitted maximal effect; nearly all actives have a fitted effect of over 45% in size
Outline: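 HepG2-CYP2B6-hCAR, 2500 cells/well, 4 h pre-incubation; cpd 15 conc + PK11195 0.75 uM final; 23 h, 37 C/5% CO2; CellTiter-Fluor, fluorescence.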

[13] = target: Nuclear receptor subfamily 1 group I member 3 (Homo sapiens) (UniProt Q14994); assay: qHTS assay to identify small molecule agonists of the constitutive androstane receptor (CAR) signaling pathway (AID 1224839); further: potency means the concentration at half of the fitted maximal effect; nearly all actives have a fitted effect of over 15% in size
Outline: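 HepG2-CYP2B6-hCAR cells, 2500/well, 4 h pre-incubation; compounds 15 conc.; PK11195 0.75 uM final; 24 h, 37 C/5% CO2; ONE-Glo luciferase read.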

[14] = qHTS assay to identify small molecule antagonists of the estrogen related receptor (ERR) signaling pathway - cell viability counter screen (AID 1224818);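 further: viability measured after 17.5 h of compound exposure; on the % scale 0 is the no-effect control and ±100 the full control effect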
Outline: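 Quantitative high-throughput viability counter screen in ERR cells. Compounds (DMSO) incubated 17.5 h at 37 C; read-out was CellTiter-Fluor fluorescence.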

[15] = qHTS assay to identify small molecule antagonists of the estrogen related receptor (ERR) signaling pathway (AID 1224819; further: potency means the concentration at half of the fitted maximal effect; nearly all actives have a fitted effect of over 50% in size)
Outline: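 ERR reporter cell line (NTP) plated at 2,000 cells/well, settled 6 h at 37C/5% CO2, then exposed to LOPAC compounds for 18 h at 37C. One-Glo luciferase luminescence read after 30 min at room temperature.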

[16] = test system: estrogen-related receptor alpha (ERRalpha) with PGC-1alpha coactivator, human; assay: qHTS assay to identify small molecule antagonists of the estrogen related receptor signaling pathway with the pleiotropic PPARgamma coactivator (PGC) (AID 1224821; calls by dose curve; further: potency means the concentration at half of the fitted maximal effect; nearly all actives have a fitted effect of over 50% in size)
Outline: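 Luminescence from One-Glo luciferase reagent (30 min, room temperature) measured after 18 h compound treatment at 37 °C. Cells carry the PGC/ERR reporter and were seeded 6 h prior to dosing.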

[17] = qHTS assay to identify small molecule antagonists of the estrogen related receptor signaling pathway with the pleiotropic PPARgamma coactivator (PGC) cell viability counter screen (AID 1224822; further: potency means the concentration at half of the fitted maximal effect)
Outline: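 Cytotoxicity in the PGC/ERR cell line is assessed with CellTiter-Fluor, read as fluorescence intensity 30 min after reagent addition, following 17.5 h compound treatment at 37 C.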
Tags describe the fitted curve by direction and shape or compound fluorescence and quenching.

c1cc(N(CC2CO2)CC2CO2)ccc1OCC1CO1 (centres undefined)
Potency [1]: inconclusive: 30.7 µM [rising, partial curve, poor fit] | Potency [2]: inconclusive: 21.7 µM [activator, partial curve, poor fit] and inconclusive: 68.6 µM [activator, single point] | Potency [3]: inconclusive: 61.2 µM [cytotoxic, partial curve] | Potency [4]: inconclusive: 54.5 µM [inhibitor, partial curve] | Potency [5]: inconclusive: 43.3 µM [cytotoxic, partial curve] and inconclusive: 30.6 µM [cytotoxic, partial curve] | Potency [6]: inactive | Potency [7]: inconclusive: 7.7 µM [activator, partial curve] | activation [8]: inconclusive: -30.1% | Potency [9]: inconclusive: 13.8 µM [cytotoxic, single point] and inconclusive: 12.3 µM [cytotoxic, partial curve, poor fit]

CCCCCCCC[N+](CCCCCCCC)(CCCCCCCC)CCCCCCCC
Potency [1]: active: 27.3 µM | Potency [2]: inconclusive: 9.67 µM [inhibitor, partial curve] | Potency [10]: active: 24.3 µM | Potency [11]: inconclusive: 89.2 µM [inhibitor, single point] | Potency [12]: active: 9.67 µM | Potency [3]: active: 9.67 µM | activation [8]: inconclusive: 5.05%

C=C(CC)C(=O)c1ccc(OCC(=O)O)c(Cl)c1Cl
Potency [1]: inconclusive: 68.1 µM [rising, single point] | Potency [10]: inconclusive: 68.1 µM [cytotoxic] | Potency [12]: inconclusive: 43 µM [cytotoxic, partial curve] | Potency [3]: inconclusive: 54.1 µM [cytotoxic, partial curve] | Potency [4]: inconclusive: 68.1 µM [inhibitor, single point] | Potency [13]: inconclusive: 4.82 µM [activator, partial curve] and active: 3.35 µM | Potency [6]: active: 30.4 µM and active: 29.8 µM | Potency [9]: active: 19.4 µM and active: 21.3 µM

CN1CCc2cccc3c2[C@H]1Cc1ccc(O)c(O)c1-3
Potency [1]: active: 69.3 µM and inconclusive: 25.6 µM [cytotoxic, single point] and inconclusive: 0.7 nM | Potency [2]: inconclusive: 9.79 µM [activator, partial curve] and inconclusive: 28.7 µM [inhibitor, single point] and inconclusive: 26.6 µM [activator, partial curve] | Potency [11]: inconclusive: 64 µM [inhibitor, partial curve] and inconclusive: 18.8 µM [inhibitor, partial curve] | Potency [3]: inconclusive: 26.6 µM [cytotoxic, partial curve, poor fit] | Potency [13]: active: 15.5 µM and active: 9.09 µM and active: 15 µM | Potency [5]: inconclusive: 29.8 µM [cytotoxic, single point] | Potency [8]: inconclusive: 49.1 µM [partial curve] and inconclusive: 20.4 µM [partial curve] and inconclusive: 33.5 µM [single point] | Potency [9]: inconclusive: 26.8 µM [cytotoxic, single point]

CC(=O)[C@H]1CC[C@H]2[C@@H]3CCC4=CC(=O)CC[C@]4(C)[C@H]3CC[C@]12C
Potency [1]: inconclusive: 76.5 µM [cytotoxic, partial curve, poor fit] and inconclusive: 61.1 µM [cytotoxic, partial curve, poor fit] | Potency [14]: inactive | Potency [15]: active: 11.9 µM | Potency [16]: inconclusive: 32.2 µM [inhibitor] | Potency [17]: inconclusive: 29.8 µM [cytotoxic, partial curve, poor fit] | Potency [5]: inconclusive: 43 µM [cytotoxic, partial curve] and inconclusive: 54.5 µM [cytotoxic, partial curve] | Potency [6]: active: 27.1 µM and active: 13.7 µM | Potency [8]: inactive

CCCCCCCCCCCCCC[n+]1ccccc1
Potency [1]: inconclusive: 61.1 µM [cytotoxic, single point] | Potency [2]: inconclusive: 17.2 µM [inhibitor, partial curve, poor fit] | Potency [3]: active: 9.69 µM | Potency [5]: active: 54.5 µM | activation [8]: inconclusive: 30.6% | Potency [9]: active: 49 µM

OC[C@H]1O[C@@H](n2cnc3c(=S)nc[nH]c32)[C@H](O)[C@@H]1O
Potency [1]: inconclusive: 6.68 µM [cytotoxic, partial curve] | Potency [2]: inconclusive: 29.8 µM [activator, partial curve, poor fit] | Potency [12]: inconclusive: 2.98 µM [cytotoxic, full curve] | Potency [3]: inconclusive: 2.37 µM [cytotoxic, full curve] | Potency [4]: active: 1.88 µM

CC(C)C(O)(c1ccc(OC(F)(F)F)cc1)c1cncnc1 (centres undefined)
Potency [1]: inactive | Potency [2]: inactive | Potency [4]: inactive | Potency [8]: active: 48.4 µM

C=CC(=O)OCC1CC2CC1C1CCC(COC(=O)C=C)C21 (centres undefined)
Potency [1]: inconclusive: 54.5 µM [rising, partial curve, poor fit] | Potency [2]: inconclusive: 68.6 µM [activator, partial curve, poor fit] | Potency [10]: inconclusive: 68.6 µM [cytotoxic] | Potency [5]: active: 68.6 µM
